# The supplement of paper PMC12645437, “Orthogonal IMiD-Degron Pairs Induce Selective Protein Degradation in Cells” (ACS Chemical Biology, 2025)
# The other results are listed elsewhere or left out.
# Molecular target: no compound (DMSO)
# Assay: log2 fold change of degron read counts, EGFP-low vs EGFP+ sorted cells; higher = lower degron-EGFP level without compound (poor expression or instability)
# Settings: compound: DMSO control; 18 h
# 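Further: jurkat cells carrying a lentiviral library of mutant zinc finger degrons fused to EGFP plus mCherry, mCherry+ cells FACS sorted, degron abundance counted by next-generation sequencing.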
row,Sequence,log2 fold change of degron read counts
1,FACEICGHWFTQKGNLLRHIKL,-0.215
2,FQCNICGAKFTQKGNLLRHIKL,-1.47
3,FECEICGAPFTQKGNLLRHIKL,-1.47
4,FWCEICGHHFTQKGNLLRHIKL,0.404
5,FWCEICGADFTQKGNLLRHIKL,-1.16
6,LDCEICGFACTQKGNLLRHIKL,0.268
7,FRCNQCGRPFTQKGNLLRHIKL,0.607
8,FGCNQCGAAFTQKGNLLRHIKL,-0.0235
9,FSCSVCGHEFTQKGNLLRHIKL,-2.01
10,FYCEVCGARFTQKGNLLRHIKL,-1.53
11,FNCSVCGHLFTQKGNLLRHIKL,0.275
12,FMCPICGRVFTQKGNLLRHIKL,0.146
13,FGCNVCGAPFTQKGNLLRHIKL,0.409
14,FQCPICGHWFTQKGNLLRHIKL,0.567
15,FVCDVCGAYFTQKGNLLRHIKL,-0.612
16,LRCPICGFGCTQKGNLLRHIKL,1.24

row,Sequence,log2 fold change of degron read counts
1,FHCDICGADFTQKGNLLRHIKL,-1.68
2,FMCPVCGAGFTQKGNLLRHIKL,-0.0195
3,FNCDICGAYFTQKGNLLRHIKL,-0.163
4,FMCPICGREFTQKGNLLRHIKL,-0.534
5,LYCPICGFRCTQKGNLLRHIKL,0.607
6,FSCPICGHSFTQKGNLLRHIKL,-0.821
7,FVCPICGHWFTQKGNLLRHIKL,-1.78
8,FWCNQCGRMFTQKGNLLRHIKL,1.03
9,FRCDQCGACFTQKGNLLRHIKL,-1.14
10,FICPQCGAVFTQKGNLLRHIKL,0.112
11,FICEICGRGFTQKGNLLRHIKL,-2.84
12,FRCEICGAMFTQKGNLLRHIKL,-0.787
13,FICNICGAQFTQKGNLLRHIKL,-0.438
14,FFCNVCGANFTQKGNLLRHIKL,-0.161
15,FCCNQCGHIFTQKGNLLRHIKL,0.598
16,FECNQCGRIFTQKGNLLRHIKL,-0.592
